Laboratory results published in PubChem BioAssay AID686978 (National Center for Advancing Translational Sciences (NCATS), 2013).
Out of some 420,000 compounds screened, about 64,000 (15%) were called active. Inconclusive means that the source gave no clear call. Such entries were picked first, then a sample of the others. Calls follow the shape of the dose curve; as a rule, active = well fitted inhibition curve with a large enough effect; inconclusive = small, poorly fitted or top-dose-only effect; inactive = flat fitted curve, though single readings scatter. No potency is given beside an inconclusive call; the fits are too rough.
% is scaled to controls: 0 for no effect and ±100 for the full control effect; potency is read from the fitted curve at half-maximal effect; tags tell the direction and shape of the fitted curve.

Assay: qHTS for Inhibitors of human tyrosyl-DNA phosphodiesterase 1 (TDP1): qHTS in cells in absence of CPT; also: nearly all actives have a fitted effect of over 55% in size
Details: DT40 Tdp1-/- hTDP1 cells, no CPT, ATP luminescence, 48 h; activity change, negative = growth inhibition: at 46.2 µM (top of the series) unless noted
Outline: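 Growth kinetics read by CellTiter-Glo luminescence after ≥48 hr at 37 °C. Cells: DT40 Tdp1-/- stably carrying human TDP1, 400 per well, compound exposure in the absence of CPT (DMSO vehicle).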
With `C/C(N)=C(/C#N)C(=O)COC(=O)C1CCN(C(=O)c2ccc(Cl)cc2)CC1` the “activity change, negative = growth inhibition” value was inactive: -29.6%.
With `COc1cccc(C2C3=C(N=c4s/c(=C\c5cccc(O)c5)c(=O)n42)c2ccccc2CC3)c1OC` (stereo not drawn) the Potency was inconclusive [inhibitor, single point].
In the case of `CC(C)(C)n1nc2c(c1NC(=O)COc1ccc(F)cc1)CS(=O)(=O)C2`, the “activity change, negative = growth inhibition” value is reported as inactive: 13.1%.
With `O=C(c1ccc(S(=O)(=O)Nc2ccccc2F)cc1)N1CCCC1` the “activity change, negative = growth inhibition” value was inactive: -19%.
With `CSc1ccc(C(=O)C2CCCN(C(=O)c3cccnc3SC)C2)cc1` (stereo not drawn) the Potency was active: 16.4 µM.
With `COC(=O)c1ccccc1NC(=O)CSc1nncn1C` the “activity change, negative = growth inhibition” value was inactive: 2.62%.
With `COc1cccc(Nc2c3c(nc4c(-c5ccccc5)c(C)nn24)CCC3)c1` the Potency was active: 13 µM.
With `Cc1ccc(CSc2nnc(NC(=O)Cn3cnc4ccccc4c3=O)s2)cc1` the Potency was inconclusive [inhibitor, single point].
In the case of `CCn1cc(C(=O)NCC(=O)NCCCN2CCOCC2)c(=O)c2cc3c(cc21)OCO3`, the “activity change, negative = growth inhibition” value is reported as inactive: 19.3%.
For `Cc1nn(-c2ccccc2)c2sc(C(=O)Nc3cccc(Br)c3)cc12`, the Potency was inconclusive [inhibitor, single point].
In the case of `CCCCNc1c(-c2ccc(SC(C)CC)c(OC)c2)nc2ccc(C)cn12` (stereo not drawn), the Potency is reported as active: 6.51 µM.
With `CCC1CCCCN1C(=O)c1cc(-c2ccc(Cl)c(Cl)c2)on1` (stereo not drawn) the Potency was inconclusive [inhibitor, single point].
For `CCCc1cc(=O)oc2cc(OCc3cc(OC)c(OC)c(OC)c3)c(Cl)cc12`, the Potency was inconclusive [inhibitor, partial curve].
In the case of `COc1ccccc1CNC(=O)CN1C(=O)NC(Cc2ccccc2)(c2ccccc2)C1=O` (stereo not drawn), the “activity change, negative = growth inhibition” value is reported as inactive: -26.2%.
With `Cc1ccc(NC(=O)c2cc(S(=O)(=O)N3CCCCC3)c[nH]2)cc1F` the Potency was “inactive”.
In the case of `CC(=O)Nc1ccc2nc(NC(=O)COc3cccc(C)c3)sc2c1`, the Potency is reported as inconclusive [inhibitor, single point].
For `Cc1ccc(S(=O)(=O)Nc2ccc(N3CCCCC3)cc2)cc1`, the Potency was inconclusive [inhibitor, partial curve].
For `COc1ccc(CN2CCN(c3ncnc4scc(-c5ccc(F)cc5)c34)CC2)cc1`, the Potency was active: 20.6 µM.
With `CCOc1ccccc1NC(=O)CSC1=C(C#N)C(c2ccco2)C(C(=O)Nc2nc3ccccc3s2)=C(C)N1` (stereo not drawn) the Potency was inconclusive [inhibitor, single point].
With `COc1ccc2c(c1)CCC(=O)[C@H](O)C[C@H](c1ccccc1)OC2=O` the Potency was inconclusive [inhibitor, single point].
For `CC(=O)Nc1ccc(S(=O)(=O)N(Cc2cc3ccc(C)cc3[nH]c2=O)CC2CCCO2)cc1` (stereo not drawn), the Potency was inconclusive [inhibitor, single point].
With `NC(=O)c1ccc(Nc2ccc3c(c2)CCC3)c([N+](=O)[O-])c1` the Potency was inconclusive [inhibitor, partial curve].
For `Cc1sc2nc(SCC(=O)NCc3ccco3)n(C)c(=O)c2c1C`, the Potency was inconclusive [inhibitor, single point].
In the case of `CN(C(=O)c1cccc(NC(=O)Cc2ccc(NC(=O)C3CCCN(C(=O)CCc4ccccc4)C3)cc2)c1)C1CCC1` (stereo not drawn), the Potency is reported as active: 14.6 µM.
In the case of `COc1ccc(C(CNC(=O)Cn2[nH]c(=O)c3ccccc3c2=O)N2CCCC2)cc1` (stereo not drawn), the Potency is reported as inconclusive [inhibitor, partial curve, poor fit].
With `COc1ccccc1-c1nnc(C2CCN(S(=O)(=O)c3ccc(F)c(C)c3)CC2)o1` the Potency was inconclusive [inhibitor, single point].
In the case of `Cc1noc(C)c1S(=O)(=O)NCCc1csc2nc(-c3ccc(Cl)cc3)nn12`, the Potency is reported as active: 11.6 µM.
In the case of `Cc1ccc(C(=O)N2CCN(c3ccccc3)CC2)cc1S(=O)(=O)N1CCCC1`, the Potency is reported as inconclusive [inhibitor, partial curve].
With `O=C(COc1ccc(S(=O)(=O)N2CCCC2)cc1)NCc1ccccn1` the “activity change, negative = growth inhibition” value was inactive: -20.3%.
For `COc1ccc(S(=O)(=O)NNC(=O)C(=O)NNc2ccccn2)cc1`, the “activity change, negative = growth inhibition” value was inactive: -18.7%.
With `COC(=O)c1c(-c2ccccc2OC)sc2ccccc12` the Potency was inconclusive [inhibitor, single point].
With `Cc1ccc(NC(=O)c2ccc(C(=O)c3ccccc3)cc2)nc1` the Potency was inconclusive [inhibitor, single point].
For `CCn1c(SCc2cc(=O)[nH]c3ccccc23)nc2c1c(=O)n(C)c(=O)n2C`, the Potency was inconclusive [inhibitor, single point].
In the case of `Cc1ccc(C(=O)Nc2ccc(C(=O)N3CCCCC3)cc2)o1`, the Potency is reported as inconclusive [inhibitor, single point].
For `Nc1cc(Cl)ccc1C(=O)OCC(=O)N1CCCC1`, the “activity change, negative = growth inhibition” value was inactive: -20.7%.
With `O=c1[nH]c(/C=C\c2ccc(O)c(Cl)c2)nc(O)c1[N+](=O)[O-]` the “activity change, negative = growth inhibition” value was inactive: 18.9%.
For `O=C(N/N=C/c1cn(-c2ccccc2)nc1-c1cc2ccccc2o1)c1c[nH]c2ccccc12`, the Potency was active: 4.61 µM.
For `CCc1ccc(C(O)c2ncc(-c3ccc4ccccc4c3)[nH]2)cc1` (stereo not drawn), the Potency was inconclusive [inhibitor, single point].
For `O=C(C1CCN(c2ncnc3c2sc2cccc(F)c23)CC1)N1CCOCC1`, the Potency was active: 29.1 µM.
With `CCOC(=O)NC(=O)/C(C#N)=N\Nc1cccc(Cl)c1` the Potency was active: 20.6 µM.
With `O=C(COc1ccc(Br)cc1)NNC(=O)c1cc(S(=O)(=O)N2CCOCC2)ccc1Cl` the “activity change, negative = growth inhibition” value was inactive: 0.475%.
In the case of `CCn1cc(Cl)c(C(=O)NNC(=O)CCn2nc(C)c([N+](=O)[O-])c2C)n1`, the “activity change, negative = growth inhibition” value is reported as inactive: -3.13%.
In the case of `CC[C@H](C)[C@H]1CNC(=S)N1CC1CCN(CC2CCC(C)CC2)CC1` (stereo partly drawn), the “activity change, negative = growth inhibition” value is reported as inactive: -17.1%.
For `CCCCc1ccc(NC(=S)NCCc2ccc(S(N)(=O)=O)cc2)cc1`, the Potency was inconclusive [inhibitor, single point].
In the case of `O=C(CSc1cccc[n+]1[O-])c1cccs1`, the Potency is reported as active: 4.11 µM.
In the case of `CCC(=O)N/N=C(\C)CC(=O)Nc1ccc(Cl)cc1`, the “activity change, negative = growth inhibition” value is reported as inactive: -16.3%.
With `COc1ccc(C(=O)Nc2cc(OC)nc(OC)n2)cc1` the Potency was inconclusive [inhibitor, partial curve].
In the case of `OCC(O)CN(c1ccccc1)c1ccccc1` (stereo not drawn), the “activity change, negative = growth inhibition” value is reported as inactive: -27.7%.
With `Cc1cccc(NC(=O)c2c(C)oc3ncnc(N4CCCCC4)c23)c1C` the Potency was inconclusive [inhibitor, single point].
In the case of `Nc1ncnc2oc(-c3ccoc3)c(-c3ccco3)c12`, the Potency is reported as inconclusive [inhibitor, single point].
With `Cc1ccc(NC(=O)Cn2c(=O)n(Cc3ccccc3)c(=O)c3c2c2cc(C)ccc2n3C)cc1` the Potency was inconclusive [inhibitor, full curve, poor fit].
For `CC(=O)N1CCCc2cc(S(=O)(=O)N(C)CC(=O)Nc3ccccc3)ccc21`, the Potency was inconclusive [inhibitor, single point].
For `Cc1ccc(-c2nnc(SCC(=O)N/N=C/c3ccc(C)s3)n2-c2ccccc2)cc1`, the Potency was active: 18.4 µM.
In the case of `COc1c(O)cc2c(c1O)C1OC(CO)C(O)[C@H](O)[C@H]1OC2=O` (stereo partly drawn), the “activity change, negative = growth inhibition” value is reported as inactive: 18.7%.
With `Cc1ccc(Cl)cc1NS(=O)(=O)c1ccc(N2CCCCS2(=O)=O)cc1` the Potency was active: 11.6 µM.
In the case of `Cc1nc(-c2ccc(F)cc2)sc1CCNC(=O)c1ccc(C(C)(C)C)cc1`, the Potency is reported as active: 16.4 µM.
For `O=C(NCc1n[nH]c(=S)n1-c1ccc(F)cc1)c1ccc(S(=O)(=O)N2CCCCC2)cc1`, the “activity change, negative = growth inhibition” value was inactive: 11.3%.
In the case of `COc1cc(=O)n2c(c1C(=O)NCc1ccco1)CCN(Cc1c(F)cccc1F)CC2`, the “activity change, negative = growth inhibition” value is reported as inactive: -7.15%.
With `FC(F)(F)c1nc(-c2ccccc2)ncc1-c1nnnn1-c1ccccc1` the Potency was active: 16.4 µM.
In the case of `COC(=O)c1cc(NC(=O)Cc2ccccc2[N+](=O)[O-])ccc1Cl`, the Potency is reported as inconclusive [inhibitor, single point].
In the case of `CCCNC(=O)c1cc2nc(-c3ccccc3)cc(C(F)(F)F)n2n1`, the Potency is reported as inconclusive [inhibitor, single point].
With `CCCN1CCC(N(CCc2ccccc2)Cc2ccccc2)CC1` the Potency was inconclusive [inhibitor, partial curve].
With `CCc1ccc(C(O)c2ncc(-c3ccc(C)cc3)[nH]2)cc1` (stereo not drawn) the Potency was inconclusive [inhibitor, single point].
For `O=C(NCC(O)c1ccc([N+](=O)[O-])cc1)C(c1ccccc1)c1ccccc1` (stereo not drawn), the Potency was inconclusive [inhibitor, partial curve].
For `COc1cc(NC(=O)C2CCN(S(=O)(=O)c3cccs3)CC2)cc(OC)c1`, the Potency was inconclusive [inhibitor, single point].
In the case of `CC1(C(=O)NC2CCCCC2)CCC(=O)N1Cc1cccs1` (stereo not drawn), the “activity change, negative = growth inhibition” value is reported as inactive: -4.4%.
For `COc1ccc(CC(=O)N/N=C/c2c(C)n(C)c3ccccc23)cc1OC`, the Potency was active: 9.2 µM.
With `O=[N+]([O-])c1ccccc1S(=O)(=O)Nc1ccc(-c2ccc3nncn3n2)cc1` the Potency was inconclusive [inhibitor, single point].
With `O=C(Nc1cccc(Cl)c1N1CCCCC1)c1ccc2c(c1)OCCO2` the Potency was active: 20.6 µM.
With `O=C(NCCN1C(=O)S/C(=C\c2ccc(F)cc2)C1=O)C1CCN(S(=O)(=O)c2cccs2)CC1` the Potency was active: 10.3 µM.
For `Cc1cccc(NC(=O)CCNC(=O)c2ccc(Br)cc2)c1C`, the “activity change, negative = growth inhibition” value was inactive: -16.2%.
With `Cc1ccc2occ(/C=C/C(=O)c3ccccc3O)c(=O)c2c1` the Potency was inconclusive [inhibitor, partial curve, poor fit].
With `CC1(OC(=O)CCc2ccccc2)C(=O)C=C2C=C(c3ccc(C#N)cc3)N(C3CC3)C=C2C1=O` (stereo not drawn) the Potency was inconclusive [inhibitor, partial curve].
